Where “and” joins values, the source holds several entries; their conditions need not be identical. Equal values may be shown once. About 180 (0.12%) of roughly 150,000 compounds were called active. Inconclusive means that the source gave no clear call. Such entries were picked first, then a sample of the others. Calls follow the shape of the dose curve; as a rule, active = well fitted cell-killing curve with a large enough effect; inconclusive = small, poorly fitted or top-dose-only effect, or effect the other way; inactive = flat fitted curve, though single readings scatter. Where the call is inconclusive, the potency comes from a doubtful curve fit.
Test: GF-AFC viability counterscreen for inhibitors of alpha-synuclein gene (SNCA) expression; also: nearly all actives have a fitted effect of over 30% in size;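 as to activity change, negative = cytotoxicity: 0% = DMSO-treated cells and -100% = medium-only wells without cells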
Conditions: HEK-293-SNCA-luc viability, GF-AFC fluorescence, 24 h; activity change, negative = cytotoxicity: at 57.1 µM (top of the series) unless noted
In short: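 HEK-293-SNCA-luc cells (1500/well) plated 24 h, then exposed 24 h to a dilution series; GF-AFC added 30 min at 37C, fluorescence 405/540 nm; normalised to medium-only and DMSO wells, Hill fit.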
Potency is read from the fitted curve at half-maximal effect; tags tell the direction and shape of the fitted curve.

SMILES | Potency | activity change, negative = cytotoxicity
Cc1ccc(NC(=O)CSc2nc(=O)cc(N)n2-c2ccccc2)cc1 | inconclusive: 14.1 µM [rising, partial curve, poor fit] | 
O=C(C1CCCC1)N1CCC(Oc2cnc3c(ccn3-c3cncnc3)c2)CC1 | inconclusive: 39.8 µM [cytotoxic, partial curve, poor fit] | 
CC(Oc1ccccc1)C(=O)N1CCC2(CC1)NC(=O)N(c1ccccc1Cl)N2 (stereo not given) | inconclusive: 39.8 µM [cytotoxic, single point] | 
CNC(=O)CCn1ncc2cc(OCc3ccccc3-c3ccccc3Cl)ccc21 |  | inactive: -19.9% [at 87.6 µM]
CC(=O)Nc1ccc(NC(=O)c2nc(S(=O)(=O)Cc3ccc(F)cc3)ncc2Cl)cc1 | active: 7.94 µM | 
COc1cc(/C=C(\C#N)c2nc3ccc(C)cc3[nH]2)ccc1OCc1ccc(C)cc1 | inconclusive: 39.8 µM [cytotoxic, single point] | 
Cc1nn(-c2ccccn2)c(C)c1[C@@H]1C=C[C@@H](NC(=O)c2cccs2)C1 |  | inactive: -10.9% [at 87.6 µM]
Cn1cc(-c2nc3cnc(Oc4ccccc4)nc3n(C3CC3)c2=O)c2ccccc21 | inconclusive: 35.5 µM [rising, single point] | 
COc1cccc(OC)c1C(=O)NCCc1sc(-c2cccc(F)c2)nc1C | inconclusive: 1.41 µM [cytotoxic, full curve] | 
O=C(NCc1ccc(Cl)cc1)c1nc2sccn2c1-c1ccc(C(F)(F)F)cc1 |  | inactive: -7.96%
CCc1nn(C(CC)C(=O)NCc2ccc(OC)c(OC)c2)c(=O)c2cc3oc(C)cc3n12 (stereo not given) | inconclusive: 11.2 µM [cytotoxic, partial curve, poor fit] | 
CC(C)C[C@@H]1N[C@H](C(=O)NCC2CC2)Cc2c[nH]c3cccc1c23 | inconclusive: 31.6 µM [cytotoxic, single point] | 
COc1ccccc1C(=O)N1CCN(c2nccc(Nc3ccccc3Cl)n2)CC1 |  | inactive: -23.2%
COc1ccc(CC(=O)N2CCc3cc(OC)c(OC)cc3C2COc2ccc(F)cc2)cc1 (stereo not given) | inconclusive: 28.2 µM [cytotoxic, single point] | 
COCCCNC(=O)C(NC(=O)C1CC1)C1CCN(C(=O)c2ccccc2)CC1 (stereo not given) | inconclusive: 12.6 µM [cytotoxic, single point] | 
O=C(Nc1cccc(C(F)(F)F)c1)N1C[C@@H](F)[C@@H](OCc2nc3ccccc3[nH]2)C1 |  | inactive: -9.19% [at 87.6 µM]
CC(C)(C)c1ccc(S(=O)(=O)/C=C/C#N)cc1 | inconclusive: 31.6 µM [cytotoxic, single point] | 
O=C1C(N2CCN(S(=O)(=O)c3cccc(Cl)c3)CC2)CCN1Cc1cccnc1 (stereo not given) | inconclusive: 1.12 µM [cytotoxic, full curve, poor fit] | 
CCCn1c2ccc(F)cc2c2nnc(SCCN3CCCCC3)nc21 | inconclusive: 28.2 µM [cytotoxic, partial curve, poor fit] | 
CCS(=O)(=O)N1CCCc2cc(C(=O)Nc3cccc(C(C)=O)c3)ccc21 | inconclusive: 39.8 µM [cytotoxic, single point] | 

SMILES | Potency | activity change, negative = cytotoxicity
CCOc1ccc(CN2CCN(C/C=C/c3ccccc3OC)CC2CCO)cc1 (stereo not given) |  | inactive: -1.93%
CC(C)OCCNc1nccc(C2(c3ccccc3Cl)CCNCC2)n1 | inconclusive: 10 µM [cytotoxic, partial curve, poor fit] | 
Cc1cc(C)cc(C(=O)N2CCN(c3cc(-c4ccc(Cl)cc4)[nH]n3)CC2)c1 |  | inactive: -22.2%
O=C1CCCCCN1CCc1nc(C2CCOC2)no1 (stereo not given) | inconclusive: 39.8 µM [cytotoxic, single point] | 
COc1ccc(C(=O)N2CCN(c3cc(-c4ccc(Cl)cc4)[nH]n3)CC2)cc1OC | inconclusive: 22.4 µM [cytotoxic, partial curve, poor fit] | 
CC1CCN(C(=O)c2ccc3c(c2)N(Cc2ccccc2)C(=O)c2ccccc2S3(=O)=O)CC1 | inconclusive: 20 µM [cytotoxic, single point] | 
Cc1cccc(-n2c(=O)c3c(cc(C)n3C)n(CC(=O)Nc3ccccc3F)c2=O)c1 | inconclusive: 17.8 µM [cytotoxic, partial curve, poor fit] | 
CCOC(=O)C1=C(C)N=C2SC=C(CC(=O)Nc3ccc(C)c(C)c3)N2C1c1cccc(OC)c1 (stereo not given) |  | inactive: -11.4%
CN1C(=O)C2(CCN(C(=O)Cc3ccccc3Cl)C2)c2ccccc21 (stereo not given) |  | inactive: -7%
COc1ccccc1NC(=O)CSc1nnc(NC(=O)Nc2ccc(C)cc2)s1 | inconclusive: 39.8 µM [cytotoxic, single point] | 
COc1ccc(S(=O)(=O)NCCc2csc3nc(-c4cccc(C)c4)nn23)cc1F | inconclusive: 6.31 µM [cytotoxic, full curve, poor fit] | 
Fc1ccc(N2CCCN(CC3[C@H]4CNC[C@@H]34)CC2)cc1 (stereo not given in full) | inconclusive: 2 µM [cytotoxic, full curve, poor fit] | 
CCN(CC)c1ccc2cc(-c3nc(-c4cccs4)no3)c(=O)oc2c1 | inconclusive: 28.2 µM [rising, single point] | 
O=C(CSc1nc2ccccc2c(=O)n1-c1ccccc1)Nc1ccc2c(c1)CCC2 | inconclusive: 23.8 µM [cytotoxic, partial curve, poor fit] | 
Cc1c(C(=O)N2CCC(C)CC2)c(S(=O)(=O)NCc2ccc(Cl)cc2)c(C)n1C | inconclusive: 12.6 µM [cytotoxic, partial curve] | 
CN(c1ccc(F)cc1)S(=O)(=O)N1CCCC(C(=O)NCc2cccc(Br)c2)C1 (stereo not given) | inconclusive: 20 µM [cytotoxic, partial curve, poor fit] | 
CCOC(=O)C1(Cc2ccccc2F)CCCN(C(=O)c2ccc(OC)nc2OC)C1 (stereo not given) | inconclusive: 2.24 µM [cytotoxic, partial curve, poor fit] | 
COc1cc2c(Nc3ccc(Br)cc3F)ncnc2cc1OCC1CCN(C)CC1 | inconclusive: 27.1 µM [cytotoxic, partial curve, poor fit] and inconclusive: 26.7 µM [cytotoxic, single point] | 
COC(=O)c1ccc2nc(C[C@@H]3C[C@@H](C(C)C)[C@H](CNC(=O)C4CCCCC4)C=C3C)[nH]c2c1 | inconclusive: 25.1 µM [cytotoxic, partial curve, poor fit] | 
Cc1ccc(C2Cn3nnc(C(=O)N4CCN(C(=O)c5cccc(C)c5)CC4)c3CO2)cc1 (stereo not given) | inconclusive: 17.8 µM [cytotoxic, partial curve, poor fit] | 

SMILES | Potency | activity change, negative = cytotoxicity
COc1ccc(C(=O)Nc2nc3n(n2)C(c2ccccc2)C=C(c2ccccc2)N3)cc1 (stereo not given) | inconclusive: 28.2 µM [rising, partial curve] | 
O=C(CCS(=O)(=O)c1nc(-c2cccs2)cc(C(F)(F)F)n1)Nc1cc(Br)ccc1O | inconclusive: 25.1 µM [cytotoxic, partial curve, poor fit] | 
COc1ccc(C2NC(=O)NC(C)=C2C(=O)Nc2ccccc2)cc1OC (stereo not given) | inconclusive: 0.1 µM [rising, partial curve, poor fit] | 
Cc1ccc([S+](=O)([O-])N2CCCC(C(=O)N3CCCC(c4nc5ccncc5[nH]4)C3)C2)cc1 (stereo not given) | inconclusive: 31.6 µM [cytotoxic, single point] | 
COc1ccc(NC(=O)N2Cc3[nH]cnc3C[C@H]2c2nc(-c3ccc4ccccc4c3)no2)cc1 | inconclusive: 3.98 µM [cytotoxic, partial curve] | 
O=C(c1ccc2ccccc2n1)N1CCC(n2c(=O)[nH]c3ccccc32)CC1 | inconclusive: 12.6 µM [cytotoxic, partial curve] | 
COc1ccc(CNC(=O)C[C@@H]2CCNC[C@@H]2Cc2cc(-c3ccc(C(C)(C)C)cc3)on2)cc1 | inconclusive: 31.6 µM [cytotoxic, single point] | 
O=C(CN1CCCc2nc(-c3ccccc3)ncc2C1=O)NCC1CC1 |  | inactive: -15.6%
Cc1ccc(N2CCN(C(=O)c3noc(-c4ccc(F)cc4)n3)CC2)c(C)c1 |  | inactive: 24%
O=C(CCNc1c(-c2cccc(F)c2)nc2cnccn12)N1CCCC1 | inconclusive: 28.2 µM [rising, partial curve] | 
Fc1ccc(Cc2nc3nccc(-c4ccccc4)n3n2)cc1 |  | inactive: 5.16%
CCc1cc2c(cc1N1CCC(N3CCOCC3)CC1)C(C)(C)c1[nH]c3cc(C#N)ccc3c1C2=O | inconclusive: 0.0192 µM [rising, full curve, poor fit] | 
Fc1ccc(CN(C2=NCCN2)c2c(Cl)cccc2Cl)cc1 | inconclusive: 39.8 µM [cytotoxic, single point] | 
CCCc1nc(C(=O)N2CCC3(CCc4ccccc43)CC2)cs1 |  | inactive: -9.05%
CCc1c2c(nc3ccc(O)cc13)-c1cc3c(c(=O)n1C2)COC(=O)[C@]3(O)CC | inconclusive: 0.0086 µM [cytotoxic, full curve, poor fit] | 
CC(=O)NC[C@@H]1C=C(C)[C@H](CC(=O)N(C)Cc2ccccc2)C[C@H]1C(C)C | inconclusive: 31.6 µM [cytotoxic, partial curve] | 
O=C(Nc1ccccc1)Nc1ccc(=O)n2c1[C@@H]1C[C@@H](CN(C(=O)Nc3ccc(F)cc3)C1)C2 |  | inactive: -6.06%
COc1ccccc1/C=C/c1nc(C#N)c(N2CCN(C)CC2)o1 | inconclusive: 25.1 µM [rising, partial curve, poor fit] | 
Cc1cccc(-n2ncc(C(=O)N3CCN(Cc4ccccc4)CC3)c2C2CCN(C(=O)OC(C)(C)C)CC2)c1 | inconclusive: 39.8 µM [cytotoxic, single point] | 
CCN1c2cc(C(=O)NCc3ccccc3OC)ccc2C(=O)N2CCCCC21 (stereo not given) |  | inactive: 13.3% [at 12.5 µM]

From PubChem BioAssay AID1671193 (National Center for Advancing Translational Sciences (NCATS), 2021)
